Measured values from the supplement of paper PMC8728848.
The other results are listed elsewhere or left out.

How the values were obtained:
Test in all cases: glycan array binding signal (z-score within array); higher = stronger binding
Details in all cases: glycan notation: IUPAC condensed, linker removed
[1] = biological target: Fuc(a1-2)Gal(b1-4)GlcNAc(b1-3)Gal(b1-4)GlcNAc(b1-2)Man(a1-3)[Fuc(a1-2)Gal(b1-4)GlcNAc(b1-3)Gal(b1-4)GlcNAc(b1-2)Man(a1-6)]Man(b1-4)GlcNAc(b1-4)GlcNAc
In short: (§1)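 The Consortium for Functional Glycomics database supplied 3228 glycan arrays, of which those lacking an available protein sequence were dropped. The binding signal, a within-array Z-score, was averaged across arrays of the same protein sequence and across linkers. Negative scores can be read as non-binding.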

[2] = biological target: Fuc(a1-2)Gal(b1-4)GlcNAc(b1-3)Gal(b1-4)GlcNAc(b1-3)Gal(b1-4)GlcNAc
In short: as §1

[3] = biological target: Fuc(a1-2)Gal(b1-4)GlcNAc(b1-3)GalNAc
In short: as §1

[4] = biological target: Fuc(a1-2)Gal(b1-4)GlcNAc(b1-3)[Fuc(a1-2)Gal(b1-4)GlcNAc(b1-6)]GalNAc
In short: as §1

[5] = biological target: Fuc(a1-2)Gal(b1-4)GlcNAc(b1-3)[Fuc(a1-3)[Gal(b1-4)]GlcNAc(b1-6)]Gal(b1-4)Glc
In short: as §1

[6] = biological target: Fuc(a1-2)Gal(b1-4)GlcNAc(b1-6)GalNAc
In short: as §1

[7] = biological target: Fuc(a1-2)Gal(b1-4)GlcNAc6S
In short: as §1

[8] = biological target: Fuc(a1-2)Gal(b1-4)[Fuc(a1-3)]GlcNAc
In short: as §1

[9] = biological target: Fuc(a1-2)Gal(b1-4)[Fuc(a1-3)]GlcNAc(b1-2)Man(a1-3)[Fuc(a1-2)Gal(b1-4)[Fuc(a1-3)]GlcNAc(b1-2)Man(a1-6)]Man(b1-4)GlcNAc(b1-4)[Fuc(a1-6)]GlcNAc
In short: as §1

[10] = biological target: Fuc(a1-2)Gal(b1-4)[Fuc(a1-3)]GlcNAc(b1-2)[Fuc(a1-2)Gal(b1-4)[Fuc(a1-3)]GlcNAc(b1-4)]Man(a1-3)[Fuc(a1-2)Gal(b1-4)[Fuc(a1-3)]GlcNAc(b1-2)Man(a1-6)]Man(b1-4)GlcNAc(b1-4)GlcNAc
In short: as §1

[11] = biological target: Fuc(a1-2)Gal(b1-4)[Fuc(a1-3)]GlcNAc(b1-3)Gal(b1-4)[Fuc(a1-3)]GlcNAc
In short: as §1

[12] = biological target: Fuc(a1-2)Gal(b1-4)[Fuc(a1-3)]GlcNAc(b1-3)Gal(b1-4)[Fuc(a1-3)]GlcNAc(b1-3)Gal(b1-4)[Fuc(a1-3)]GlcNAc
In short: as §1

[13] = biological target: Fuc(a1-2)Gal(b1-4)[Fuc(a1-3)]GlcNAc(b1-3)GalNAc
In short: as §1

[14] = biological target: Fuc(a1-2)Gal(b1-4)[Fuc(a1-3)]GlcNAc(b1-3)[Neu5Ac(a2-6)Gal(b1-4)GlcNAc(b1-6)]Gal(b1-4)Glc
In short: as §1

[15] = biological target: Fuc(a1-2)Gal3S(b1-4)GlcNAc
In short: as §1

[16] = biological target: Fuc(a1-2)Gal6S(b1-3)GlcNAc
In short: as §1

[17] = biological target: Fuc(a1-2)Gal6S(b1-3)GlcNAc6S
In short: as §1

Fuc(a1-2)Gal6S(b1-4)Glc = biological target: Fuc(a1-2)Gal6S(b1-4)Glc
In short: as §1

[18] = biological target: Fuc(a1-2)Gal6S(b1-4)Glc6S
In short: as §1

Fuc(a1-2)[Gal(a1-3)]Gal = biological target: Fuc(a1-2)[Gal(a1-3)]Gal
In short: as §1

[19] = biological target: Fuc(a1-2)[Gal(a1-3)]Gal(b1-3)GalNAc
In short: as §1

[20] = biological target: Fuc(a1-2)[Gal(a1-3)]Gal(b1-3)GalNAc(b1-3)Gal(a1-4)Gal(b1-4)Glc
In short: as §1

[21] = biological target: Fuc(a1-2)[Gal(a1-3)]Gal(b1-3)GlcNAc
In short: as §1

[22] = biological target: Fuc(a1-2)[Gal(a1-3)]Gal(b1-3)GlcNAc(b1-2)Man(a1-3)[Fuc(a1-2)[Gal(a1-3)]Gal(b1-3)GlcNAc(b1-2)Man(a1-6)]Man(b1-4)GlcNAc(b1-4)GlcNAc
In short: as §1

[23] = biological target: Fuc(a1-2)[Gal(a1-3)]Gal(b1-3)GlcNAc(b1-2)Man(a1-3)[Fuc(a1-2)[Gal(a1-3)]Gal(b1-3)GlcNAc(b1-2)Man(a1-6)]Man(b1-4)GlcNAc(b1-4)[Fuc(a1-6)]GlcNAc
In short: as §1

[24] = biological target: Fuc(a1-2)[Gal(a1-3)]Gal(b1-3)GlcNAc(b1-3)GalNAc
In short: as §1

[25] = biological target: Fuc(a1-2)[Gal(a1-3)]Gal(b1-3)GlcNAc(b1-6)GalNAc
In short: as §1

[26] = biological target: Fuc(a1-2)[Gal(a1-3)]Gal(b1-4)Glc
In short: as §1

[27] = biological target: Fuc(a1-2)[Gal(a1-3)]Gal(b1-4)GlcNAc
In short: as §1

[28] = biological target: Fuc(a1-2)[Gal(a1-3)]Gal(b1-4)GlcNAc(b1-2)Man
In short: as §1

B1: InvD YPIII (Yersinia pseudotuberculosis), B1JSC0 (protein)
chain: MIKYFSFFKKPEPIVGILPNRQSHHILPTHIRRVAWGTLLLQLFIPLSVSFSPAIAAMKASKADTMVSYSSTEPYVLGSGETVAMVAKKYGITVDELKKINIYRTFSRPFTALTTGDEIDIPRKASPFSVDNNKDNRLSVENTLAGHAVAGATALSNGDVAKSGERMVRSAASNEFNNSAQQWLSQFGTARVQLNINDDFHLDGSAADVLIPLYDNEKSILFTQLGARNKDSRNTVNMGAGVRTFQGNWMYGANTFFDNDLTGKNRRIGVGAEAWTDYLKLSANNYFGITDWHQSRDFIDYNERPANGYDLRAEAYLPSYPQLGGKAMYEKYRGDDVALFGKDNRQKNPHAITAGVNYTPIPLVTIGAEHRAGKGGQNDSNINFQLNYRLGETWQSHIDPSAVAASRTLAGSRYDLVERNNHIVLDYQKQNLVRLSLPDSLAGDPFSQLSVTAQVTATHGLERIDWQSAELMAAGGVLKQTSKNGLEITLPEYQMNRTGGNSYILNAIAYDTQGNASSQASMLITVNAQKINIANSTLVAVPINIEANNSDTSVVTLTLKDDNNIPVTGQDVTFLSPLGTLSAMTDSGNGVYTATLTAGTVSGTTAVSSNINGSALDMTPATVTLNGNSGELSITHSMLVAAPVNIEANGSDTSVVTLTLRDSNNNPVTGQTVTFAGTLGTLGAVTEGSSGVYTATLTAGIMVGTSSITASVNSTALGVTPATVTLNGDSGNLSTTNSTLVAAPVNIEANSSDTSVVTLTLRDNNNNPVTGQTVVFTSTLGTLGNVTEQASGVYTATLTAGTVSGVASLSVSVGGNALGVTPATVTLNGDSGNLSTTNSTLVAAPVNIEANSSDTSVVTLTLRDNNNNPVTGQTVNFAGTLGTLGTVSEGSSGVYTTTLTAGTVAGVASLSVNVGGNALGVTPATVTLNGNSGNLSATNSTLVAAPVNIEANSSDTSVVTLTLRDNNNNPVTGQTVAFTSTLGTLGNVTEQASGVYTATLTAGTVSGVASLSVSVNSNALGVTPATVTLNGDSGNLSTTNSTLVAAPVNIEANSSDTSVVTLTLRDNNNNPVTGQTVAFTSTLGTLGNVTEQASGLYTATLTAGTVSGVASLSVNVGGNALGVTPATVTLNGDSGNLSATNSTLVAAPVNIEANSSDTSVVTLTLRDNNNNPVTGQTVAFTSTLGTLGNVTEQASGLYTATLTAGTVSGVASLSVNVGGTALGVTPATVTLNGDSGNLSTTNSTLVAAPVNIEANSSDTSVVTLTLRDNNNNPVTGQTVAFTSTLGTLGNVTEQASGLYTATLTAGTVSGVASLSVSVNSTALGVTPATVTLNGDSGNLSTTNSTLVAAPVNIEANSSDTSVVTLTLRDNNNNPVTGQTVAFTSTLGTLGNVTEQASGVYTATLTAGTVAGVASLSVNVGGNALGVTPATVTLNGDSGNLSTTNSTLVAAPVNIEANSSDTSVVTLTLRDNNNNPVTGQTVAFTSTLGTLGNVTEQASGVYTATLTAGTVSGVASLSVSVGSSALGVTPATVTLNGDSGNLSTTNSTLVAAPVNIEANNSDTSVVTLTLRDNNNNPVTGQTVAFTSTLGTLGNVTEQASGVYTATLTAGTVSGVASLSVSVNSNALGVTPATVTLNGDSGNLSTTNSTLVAAPVNIEANSSDTSVVTLTLRDNNNNPVTGQTVVFTSTLGTLGNVTEQASGLYTATLTAGTVSGVASLSVSVGGNALGVTGNITLAPGALDAARSILAVNKPSINADDRIGSTITFTAQDAQGNAITGLDIAFMTDLENSQIMTLVDHNDGTYTANINGTQTGIANIAVQSSGATIAGLAATMVTITPGAWNTTQATPVMTVALPITTCQSSSGVYKRYYIGIVTHELYDNYGNEISGILTYNLGAGRYTTVTSQNSSVSGSNGLTRRSNSPVSHFILTSDAYTSQAACYAERIANVNVTITVTAITDDFKTSAVNKVFILGTGSN
[1]
  glycan array binding signal (z-score): -0.232
[2]
  glycan array binding signal (z-score): -0.136
[3]
  glycan array binding signal (z-score): -0.185
[4]
  glycan array binding signal (z-score): 0.013
[5]
  glycan array binding signal (z-score): -0.336
[6]
  glycan array binding signal (z-score): 0.052
[7]
  glycan array binding signal (z-score): -0.232
[8]
  glycan array binding signal (z-score): -0.265
[9]
  glycan array binding signal (z-score): -0.135
[10]
  glycan array binding signal (z-score): -0.23
[11]
  glycan array binding signal (z-score): -0.114
[12]
  glycan array binding signal (z-score): -0.284
[13]
  glycan array binding signal (z-score): 0.909
[14]
  glycan array binding signal (z-score): -0.22
[15]
  glycan array binding signal (z-score): -0.256
[16]
  glycan array binding signal (z-score): -0.089
[17]
  glycan array binding signal (z-score): 0.027
Fuc(a1-2)Gal6S(b1-4)Glc
  glycan array binding signal (z-score): -0.158
[18]
  glycan array binding signal (z-score): 0.163
Fuc(a1-2)[Gal(a1-3)]Gal
  glycan array binding signal (z-score): 0.067
[19]
  glycan array binding signal (z-score): -0.148
[20]
  glycan array binding signal (z-score): -0.058
[21]
  glycan array binding signal (z-score): -0.153
[22]
  glycan array binding signal (z-score): -0.164
[23]
  glycan array binding signal (z-score): -0.004
[24]
  glycan array binding signal (z-score): -0.374
[25]
  glycan array binding signal (z-score): 0.218
[26]
  glycan array binding signal (z-score): -0.359
[27]
  glycan array binding signal (z-score): -0.179
[28]
  glycan array binding signal (z-score): -0.344
